# Several values for one entry are separate records, joined by “and”; a condition that tells them apart may be missing. Identical values can stand only once. In all, about 350,000 compounds went through this assay and about 9,900 (2.8%) were called active. Inconclusive results, whose numbers are uncertain, are shown with a selection of clear calls. The call rests on the fitted dose curve; in most records, active means well fitted activation curve with a large enough effect; inconclusive means small, poorly fitted or top-dose-only effect; inactive means no such curve, though single readings can be large or run the other way. No potency is given beside an inconclusive call; the fits are too rough. Where a structure was tested more than once in an assay, its records may differ in their call.
# Assay: A quantitative high throughput screen for small molecules that induce DNA re-replication in MCF 10a normal breast cells. Further: nearly all actives have a fitted effect of over 50% in size.
# Conditions: MCF 10A DNA re-replication, Hoechst nuclear intensity, 48 h; series mostly up to 46.1 µM
# Potency means the concentration at half of the fitted maximal effect; tags describe the fitted curve by direction and shape.
row,SMILES,Potency
1,CO/N=C/C(=N\Nc1ccc(C)cc1)C(=O)c1ccc(OC)cc1,active: 2.59 µM
2,Cc1cc(NCCCOC(C)C)n2c(nc3ccccc32)c1C#N,"inconclusive [activator, single point]"
3,Cc1ccc(NC2=Nc3ccccc3N3C2=Nc2c(c(C)nn2-c2ccccc2)C3c2ccc(O)c(O)c2)cc1 (centres undefined),"inconclusive [activator, partial curve, poor fit]"
4,CN(C)CCCN(C(=O)/C=C/c1cccs1)c1nc2ccc(F)cc2s1,active: 23.1 µM
5,Cc1cccc(C)c1Nc1nnc(SCc2nc3ccccc3s2)s1,"inconclusive [activator, single point]"
6,O=C(N/N=C/c1cccc(F)c1)c1cc(-c2ccco2)nc2ccccc12,"inconclusive [activator, single point]"
7,O=C(CSc1nc(-c2ccccc2Cl)ns1)NCc1ccc2c(c1)OCO2,inactive
8,CCn1c(SCC(=O)Nc2cc(C)c(Cl)cc2OC)nnc1-c1ccco1,"inconclusive [activator, full curve, poor fit]"
9,COCCN(C(=O)COC(=O)C12CC3CC(CC(C3)C1)C2)c1c(N)n(Cc2ccccc2)c(=O)[nH]c1=O,inactive
10,COc1ccccc1Nc1nc(N)nc(CN2CCCCC2)n1,inactive
11,CCOC(=O)N1CCN(S(=O)(=O)c2ccc(NC(C)=O)cc2)CC1,"inconclusive [activator, single point]"
12,Cc1nn(-c2ccccc2)c(C)c1C(=O)NCc1ccccc1F,inactive
13,Cc1cc(=O)oc2c(C)c(OCC(=O)Nc3cccnc3)ccc12,inactive
14,CC12C(=O)N(c3cccc(OC(=O)c4ccco4)c3)C(=O)C1C1c3ccccc3C2c2ccccc21 (centres undefined),"inconclusive [activator, partial curve, poor fit]"
15,O=C(N/N=C/c1c[nH]c2ccccc12)C1CC(=O)N(c2ccccc2)C1 (centres undefined),"inconclusive [activator, single point]"
16,Cc1nn(Cc2ccc(Cl)c(Cl)c2)c(C)c1NC(=O)c1cc(CC(C)C)on1,inactive
17,CN(C)c1ccc(NC(=O)CCN2CCN(c3ccccn3)CC2)cc1,inactive
18,COc1ccc2nc(SCCC(=O)O)cc(C)c2c1,inactive
19,Cc1c(-c2ccccc2)nc2ccccc2c1C(=O)Oc1ccc([N+](=O)[O-])cc1,"inconclusive [activator, full curve]"
20,CCOC(=O)c1cnc(-n2nc(C)cc2C)nc1Nc1cccc(C(C)=O)c1,inactive
21,Cc1cc(C)c(C)c(S(=O)(=O)NCC(=O)Nc2sc3c(c2C(N)=O)CCCC3)c1C,"inconclusive [activator, full curve]"
22,CCC(C)N(C(=O)Cn1nnc(-c2ccc(F)cc2)n1)C1CCS(=O)(=O)C1 (centres undefined),inactive
23,COc1cc(C(=O)NC(=S)NNC(=O)c2ccc3c(c2)OCO3)cc(OC)c1OC,"inconclusive [activator, single point]"

row,SMILES,Potency
1,CCCNC(=O)C(Cc1ccc(C(F)(F)F)cc1)NC(=O)c1ccc(C#N)cc1 (centres undefined),"inconclusive [activator, partial curve, poor fit]"
2,COc1ccc(S(=O)(=O)N2CCC(C(=O)Nc3ccc(F)cc3)CC2)c2cccnc12,inactive
3,CCn1c(SCC(=O)OC)nnc1-c1ccncc1,"inconclusive [activator, full curve, poor fit]"
4,Cc1ccc([N+](=O)[O-])cc1-c1ccc(/C=N/NC(=O)c2cc3c(ccc4ccccc43)o2)o1,inactive
5,CC1=C(C(=O)OCC2CCCO2)C(c2cccc(C(F)(F)F)c2)C2=C(CC(c3ccco3)CC2=O)N1 (centres undefined),"inconclusive [activator, single point]"
6,Cc1ccn2c(CNCC3OCCc4ccccc43)c(C(=O)N3CCCCCC3)nc2c1 (centres undefined),inactive
7,CC(C)=CCC1=C(OCC(=O)O)C(=O)c2ccccc2C1=O,"inconclusive [activator, partial curve]"
8,CCOC(=O)N1CCN(C(=O)c2ccc(Cn3c(=S)[nH]c4cc(OCC)c(OCC)cc4c3=O)cc2)CC1,inactive
9,COc1cc2c(cc1OC)C(c1cccc(Br)c1)CC(=O)N2 (centres undefined),"inconclusive [activator, single point]"
10,COc1cccc(-c2cc(C(=O)N3C(C)CCCC3C)no2)c1 (centres undefined),inactive
11,CN(C)c1ccc(N2C(=NC(=O)C3CCCO3)SC3CS(=O)(=O)CC32)cc1 (centres undefined),inactive
12,CN(C)c1ccnc(N(Cc2ccccc2)Cc2ccccc2)c1C#N,inactive
13,CC(C)(C)c1nc2ccccc2c(=O)n1N1C(=O)c2ccccc2C1=O,"inconclusive [activator, single point]"
14,Cc1ccc(C(=O)NCCNC(=O)COc2ccc(C)c(C)c2)cn1,inactive
15,Cc1ccc(S(=O)(=O)c2ccc([N+](=O)[O-])cn2)cc1,"inconclusive [activator, single point]"
16,CN(CC1CCCO1)S(=O)(=O)c1ccc(C(=O)Nc2ccccc2F)cc1 (centres undefined),"inconclusive [activator, single point]"
17,COc1ccc(NS(=O)(=O)CC(C)C)c(OC)c1,inactive
18,CC(=O)Nc1ccc(/C=C(\C#N)C(=O)NC2CCCCC2C)cc1 (centres undefined),"inconclusive [activator, single point]"
19,CCOc1ccc(NC(=O)c2sc3nc4n(c(=O)c3c2C)CCC4)cc1,inactive
20,Nc1nc2c(s1)CC(c1ccccc1)CC2 (centres undefined),"inconclusive [activator, full curve]"
21,Cn1nc(-c2ccc(C(=O)Nc3cccc(Cl)c3)cc2)c2ccccc2c1=O,"inconclusive [activator, partial curve, poor fit]"
22,COc1ccc(CCC(C)Nc2cccc(C)c2)cc1 (centres undefined),"inconclusive [activator, single point]"
23,CCN1CCN(Cc2ccc(NC(=O)c3cc(NC(=O)N4CCNC4=O)cc(OC)c3)cc2C(F)(F)F)CC1,inactive

row,SMILES,Potency
1,COc1cccc(CC2(CO)CCCN(Cc3cn[nH]c3-c3ccc(F)cc3)C2)c1 (centres undefined),"inconclusive [activator, single point]"
2,COc1ccc(NC(=O)c2cc(C)n(Cc3cccs3)c2C)cc1,"inconclusive [activator, single point]"
3,CCOC(=O)c1cc2occc2n1Cc1c(F)cccc1Cl,"inconclusive [activator, full curve, poor fit]"
4,COc1ccc(CN(C(=S)Nc2ccccc2)C2CC(=O)N(c3ccc(Cl)cc3)C2=O)cc1 (centres undefined),"inconclusive [activator, single point]"
5,CCN(C(=O)c1ccc(Cl)cc1[N+](=O)[O-])c1ccccc1C,"inconclusive [activator, full curve, poor fit]"
6,C=C(c1ccc2nc(NC(=O)OC)[nH]c2c1)c1cccs1,active: 0.58 µM
7,CC(C)(C)NC(=O)C(c1ccncc1)N(CC1CCCO1)C(=O)Cn1nnc(-c2ccc(F)cc2)n1 (centres undefined),inactive
8,CSc1nsc(NC(=O)Nc2ccccc2)n1,"inconclusive [activator, partial curve, poor fit]"
9,COc1ccccc1NC(=O)c1ccc(-n2cccn2)c([N+](=O)[O-])c1,"inconclusive [activator, single point]"
10,Cc1ccc(OCc2nnc(SCC(=O)NCc3ccco3)n2C)cc1,inactive
11,CC(=O)Nc1cccc(N/C=C(\C=O)c2nc3ccccc3o2)c1,"inconclusive [activator, single point]"
12,N[C@@H](Cc1cc(I)c(Oc2ccc(O)c(I)c2)c(I)c1)C(=O)O,inactive and active: 20.6 µM
13,Cc1ccc(OCc2nnc(SCC(=O)Nc3ccc4c(c3)OCCO4)n2Cc2ccco2)cc1,"inconclusive [activator, partial curve, poor fit]"
14,CCOc1ccc(NC(=S)N(CCCN2CCOCC2)Cc2cn(C)c3ccccc23)cc1,"inconclusive [activator, single point]"
15,CC(C(=O)Nc1ccc(O)cc1)c1cccc(C(=O)c2ccccc2)c1 (centres undefined),"inconclusive [activator, partial curve, poor fit]"
16,CC1CC2C3CCC4=CC(=O)CCC4(C)C3CCC2(C)C1(O)C(=O)CO (centres undefined),inactive
17,Cc1ccccc1COC[C@H](CC(C)C)N1CCN(C(=O)c2cccc(C(F)(F)F)c2)CCC1=O,inactive
18,CCOC(=O)C(NC(=O)Nc1ccc(Cl)cn1)(Oc1ccccc1)C(F)(F)F (centres undefined),"inconclusive [activator, partial curve, poor fit]"
19,CCOC(=O)c1sc(NC(=O)C(CC)OC(=O)C(CC(C)C)NC(=O)c2ccccc2)nc1C (centres undefined),"inconclusive [activator, single point]"
20,COc1cc(-c2nc3ccc(C)cn3c2NCc2ccccc2)ccc1-c1cccc(Cl)c1,"inconclusive [activator, partial curve, poor fit]"
21,COc1ccc2sc(-c3ccc(S(C)(=O)=O)cc3)c(-c3ccc(SC)cc3)c2c1,"inconclusive [activator, single point]"
22,COc1ccc(OC)c(NC(=S)N2c3ccccc3CC2C)c1 (centres undefined),"inconclusive [activator, single point]"
23,CCOC(=O)C1(CC2CCCCO2)CCN(S(=O)(=O)c2c(C)nn(C)c2C)CC1 (centres undefined),"inconclusive [activator, single point]"
